Our source for the Potency values is PubChem BioAssay (Tox21).

The nature of the assay: qHTS assay to identify small molecule antagonists of the thyroid receptor (TR) signaling pathway (AID 743065). Further: nearly all actives have a fitted effect of over 55% in size. Particulars: GH3.TRE-Luc, T3-stimulated luciferase inhibition, 23.5 h; series mostly up to 70.3 µM. A digest of the protocol:
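Antagonism measured as loss of luciferase signal in GH3 cells stably carrying a TRE-luciferase reporter, co-treated with compound and T3 (1 nM final) for 23.5 h at 37 C. Viability was read in the same well by CellTiter-Fluor.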

Each structure is given as a SMILES string. Results filed as inconclusive are left out. The call rests on the fitted dose curve; in most records, active means well fitted inhibition curve with a large enough effect in the repeat runs; inconclusive means weak or mixed curves; inactive means no such curve, though single readings can be large or run the other way. Some compounds were tested as several samples or in several runs, with calls that do not always agree. Not every entry of the source has a single result; some have several. This list holds those alone. An entry can have further records. Values given together are repeated measurements (runs, samples, wells, individuals or studies). Marks in square brackets tell the records apart. A, B and so on number the origins entry by entry.
Potency means the concentration at half of the fitted maximal effect.

On to `CCN(CC)C(=O)[C@@H]1C=C2c3cccc4[nH]cc(c34)C[C@H]2N(C)C1`, for which the Potency entry is “active: 160 µM [sample A] and inactive [sample B]”.
